# Test results reported in PubChem BioAssay (NCI).
# “And” between values parts separate entries of the source, which are not always exact repeats. Equal entries are not always repeated.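 Interpolation was linear, between the two tested concentrations surrounding the appropriate level; five concentrations were tested over 48 hours in 96-well plates. Abbreviation: GI50, concentration required for 50% inhibition of growth. Definition used: TGI = concentration required for complete inhibition of growth.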 Square brackets hold non-standard residues; d marks the D form. Peptide text beside a SMILES is read from it. Phe(4-NO2) = N[CH](Cc1ccc([N+](=O)[O-])cc1)C(=O)O
# Test system: NCI-H322M lung
# Assay: growth of human tumour cells (NCI), 48 h
Structure (SMILES),GI50,TGI
CCN(CC)CCOc1ccc(Cc2ccccc2)cc1,49.6 µM,> 100 µM
CCCc1n(Cc2ccc3ccccc3n2)cc[n+]1Cc1ccc2ccccc2c1,3.46 µM,15 µM
O=C(Nc1nccs1)NS(=O)(=O)n1cnc2ccccc21,,> 100 µM
COc1ccc2c(c1)C(=O)[C@@](Nc1ccc(C=O)cc1)(OC)[C@@](OC)(c1ccc([N+](=O)[O-])cc1)O2,,> 10 µM
O=C(N[C@@H](Cc1ccccc1)B(O)O)[C@H](Cc1cccc2ccccc12)NC(=O)N1CCOCC1,0.138 µM,0.763 µM and 0.469 µM
C[C@H](CO)C1=CC(C#C[Si](C)(C)C)N(C(=O)Oc2ccccc2)c2ccccc21 (some centres undefined),,29.7 µM
Cc1nc(-n2nc(-c3ccccc3)cc2-c2ccccc2)sc1C(=O)/C=C/c1ccc(Cl)cc1,,45.3 µM
O=c1c(-c2nc3ccccc3[nH]2)cc2ccccc2n1Cc1cn(Cc2ccccc2Cl)nn1,2.5 µM,6.94 µM
Cc1cc(C)c(O)c(CNCCCNCc2cc(C)cc(C)c2O)c1,2.43 µM,12.2 µM
CSC1SCC2C(=O)N(C)C(C(C)C)C(=O)OCC(NC(=O)c3cnc4ccccc4n3)C(=O)NC(C)C(=O)N(C)C1C(=O)N(C)C(C(C)C)C(=O)OCC(NC(=O)c1cnc3ccccc3n1)C(=O)NC(C)C(=O)N2C (centres undefined),< 0.001 µM,
Clc1nc(Nc2nc3ccccc3[nH]2)nc(Cl)c1-c1ccccc1,,> 100 µM
CCOC(=O)NC(=O)c1cn(C2OC(COC(=O)CCCCCCCCC(=O)OCC3OC(n4cc(C(=O)NC(=O)OCC)c(=O)[nH]c4=O)C4OC(C)(C)OC34)C3OC(C)(C)OC32)c(=O)[nH]c1=O (centres undefined),,> 100 µM
CN(C(=O)c1ccc(Cl)cc1)C(=S)N1CCN(c2ccccc2)CC1,,> 100 µM
O=C1CSC(c2cccc(Oc3ccccc3)c2)N1c1cccc(Cl)c1Cl (centres undefined),,> 100 µM
CCSc1nc(C)nc2c1sc1nc3ccccc3n12,,> 100 µM
COc1cc(OC2OC(CO)C(O)C(O)C2O)c2c(c1)O[C@@H]1[C@H](O)Oc3cc(OC)c(OC)cc3[C@]1(O)C2=O (some centres undefined),,> 25 µM
COc1cc(=O)oc(/C=C/C=C/C=C/C(C)=C\C2(C)OC(C)C(C)(O)C2O)c1C (centres undefined),,> 100 µM
Nc1ncnc2c1cnn2COCC(O)CO (centres undefined),,> 100 µM
COC(=O)C1=C(O)c2cc3c(cc2[C@H](c2cc(OC)c(OC)c(OC)c2)C1)OCO3,,> 100 µM
Nc1nc(CC2(O)CCCCC2)cc(-c2ccccc2)n1,,> 100 µM
Nc1nc(Cl)c(C=O)c(NCC2(CO)CCC2)n1,,61 µM

Structure (SMILES),GI50,TGI
CCNC1=C(NC(=O)CCl)C(=O)c2ccccc2C1=O,,33.1 µM
CS(=O)(=O)CCC(N)P(=O)(O)O (centres undefined),,> 100 µM
COc1ccc(/C=C2/SC(c3c(O)ccc4ccccc34)N(NC(=O)CCCCCCCCC(=O)NN3C(=O)/C(=C\c4ccc(OC)c(OC)c4)SC3c3c(O)ccc4ccccc34)C2=O)cc1OC (centres undefined),,> 63.4 µM
CCOc1ccc(N=Cc2ccc3ccccc3n2)cc1,,> 100 µM
N#CC(C(=O)O)C(c1c(Cl)cccc1Cl)C(C#N)C(=O)O (centres undefined),,> 100 µM
O=C(Nc1ccc(N2CCNCC2)cn1)c1[nH]ncc1Nc1ncnc2sccc12,3.02 µM,14.3 µM
COc1ccc2c(c1OC)C(C=C(c1ccccc1)c1ccccc1)CN(C)C2 (centres undefined),,> 100 µM
COc1cc(OC)cc(C(=O)Cc2c(C(=O)c3ccccc3)c3ccccc3n2C(=O)c2ccccc2)c1,,> 100 µM
CC1=CC(=O)/C(=C/N2C(=O)CNC2=S)C(=O)O1,,> 100 µM
FC(F)(F)C1(c2ccccc2)SCc2nc3ccccc3n21 (centres undefined),,> 100 µM
COC1C(OC(C)=O)CC(=O)OC(C)C/C=C/C=C\C(O)C(C)CC(CC=O)C1OC1OC(C)C(OC2CC(C)(O)C(OC(=O)CC(C)C)C(C)O2)C(N(C)C)C1O (centres undefined),,> 100 µM
COc1ccc(-c2c3c(nc4[nH]c(=S)[nH]c(=S)c24)CCCC3)cc1OC,,> 100 µM
CC(C)C1=CC23CCC4C(C)(C(=O)O)CCCC4(C)C2CC1C1C(=O)N(c2cccc(N4C(=O)C5C6CC7C8(C)CCCC(C)(C(=O)O)C8CCC7(C=C6C(C)C)C5C4=O)c2)C(=O)C13 (centres undefined),,3.84 µM
CCN(CCCl)c1cc(CN(C)C)cc(NC(=O)c2ccc(C(=O)Nc3ccccc3)cc2)c1,,7.56 µM
COc1cc2c(cc1OC)-c1ncc3cc(OC)c(OC)c(OC)c3c1C2,22.5 µM,93.7 µM
CCN(CC)c1ccc(/C=N/NC(=O)c2ccccc2Nc2ccnc(C(F)(F)F)c2)c(O)c1,0.155 µM,> 100 µM
COc1c(N2CCN(CN3C(=O)C(=O)c4ccccc43)C(C)C2)c(F)cc2c(=O)c(C(=O)O)cn(C3CC3)c12 (centres undefined),27.4 µM,97.5 µM
Cc1nn(C(=O)c2ccncc2)c2c1C(c1ccc([N+](=O)[O-])cc1)SC(N)=N2 (centres undefined),,> 100 µM
COc1ccc(-c2nc(SC)n(C3OC(COC(C)=O)C(OC(C)=O)C(OC(C)=O)C3OC(C)=O)c(=O)c2C#N)cc1 (centres undefined),,> 100 µM
COC(=O)CCC(NC(=O)C(CCC(=O)OC)NC(=O)C(CCC(=O)OC)NC(=O)C(CCC(=O)OC)NC(=O)C(CCC(=O)OC)NC(=O)C(Cc1ccc([N+](=O)[O-])cc1)NC(=O)C(CCC(=O)OC)NC(=O)C(CCC(=O)OC)NC(=O)C(CCC(=O)OC)NC(=O)C(CCC(=O)OC)NC(=O)C(CCC(=O)OC)NC(C)=O)C(N)=O (centres undefined) (Ac-E(OMe)E(OMe)E(OMe)E(OMe)E(OMe)[Phe(4-NO2)]E(OMe)E(OMe)E(OMe)E(OMe)E(OMe)-NH2; configuration not given here),,> 100 µM
O=C1c2ccccc2-c2c1c1ccc([N+](=O)[O-])cc1c(=O)n2CCCn1ccnc1,2.28 µM,10.3 µM

Structure (SMILES),GI50,TGI
CCCCCCC(=O)c1ccc2ccccc2c1O,,> 100 µM
Cc1ccc2c(=O)c(C(=O)NNC(=S)NC3CCCCC3)c[nH]c2n1,,> 100 µM
CCCCC(N)CSSCC(N)CCCC (centres undefined),,> 100 µM
COc1c(Cl)[c]([Hg][O]C(C)=O)c(NCC(C)=O)c(OC)[c]1[Hg][O]C(C)=O,21.1 µM,52.5 µM
C[C@H](C(O)CC(=O)C(C)(C)O)[C@H]1CC[C@@]2(C)[C@@H]3CC[C@H]4C(C)(C)[C@@H](OC5OC(COC6OC(CO)C(O)C(O)C6O)C(O)C(O)C5O)CC[C@]4(C)C3=CC[C@]12C (some centres undefined),,> 100 µM
CC(C)C1NC(=O)[C@H](C)OC(=O)[C@@H](C(C)C)NC(=O)[C@@H](C)OC(=O)C(C(C)C)NC(=O)[C@H](C)OC1=O (some centres undefined),,> 100 µM
CCC(=O)Nc1ncnc2ncn(C(=O)CC)c12,,> 100 µM
COC(=O)[C@H](Cc1cn(C)cn1)NC(=O)[C@@H](NC(=O)Nc1cc(C(F)(F)F)cc(C(F)(F)F)c1)C(C)(C)C,> 10 µM,> 10 µM
O=S(=O)(NCCNc1cc(-c2cn(-c3ccccc3)nc2-c2cccc(O)c2)ccn1)c1ccc(Br)cc1,3.29 µM,30.3 µM
CC1=CC2=C(C#N)C(=O)OC2(C)C(c2ccccc2)C1 (centres undefined),,> 100 µM
O=P(O)(O)CC1OC(CO)C(O)C1O (centres undefined),,> 100 µM
CN(C)C1C(=O)C(C(N)=O)=C(O)C2(O)C(=O)C3=C(O)c4c(O)cccc4C(C)(O)C3CC12 (centres undefined),,> 100 µM
N#Cc1c2ccc([N+](=O)[O-])cc2c(=O)n2c1sc1ccccc12,,61.1 µM
COc1ccc(OCC(C)(C)O)cc1,,> 100 µM
CC1OC(OC2C[C@](O)(C(=O)CBr)Cc3c(O)c4c(c(O)c32)C(=O)c2ccccc2C4=O)C(F)C(O)C1O (some centres undefined),,> 100 µM
CN[C@H]1CC[C@]23C[C@]24CC[C@]2(C)[C@@H]([C@H](C)N(C)C)CC[C@@]2(C)[C@@H]4CC[C@H]3C1(C)C,,39 µM
CC1(C)CN=C(Nc2ccc(F)c(Cl)c2)S1,,> 100 µM
OCCCCCNc1ccnc2cc(Cl)ccc12,,> 100 µM
CC(C)(C)C1CCC(=O)C(C(O)CC2CC(=O)N(c3ccccc3)C(=O)C2)C1 (centres undefined),,> 100 µM
